According to paper PMC8473724:
Residue numbers refer to the chain shown, from its start. No constants are given. Whether binding was seen depends on the method and setting. In cells and extracts the contact can be indirect. Some binding calls cover weakened binding; strength is not graded here. Sequences can lack the tags named with a protein. One block for each binder: values may come before it.

Assays:
[1] = molecular target: T1, FLAG-PTP1B D181A-Y46F substrate trapping mutant (full-length) (UniProt P18031); experiment: condition: only with 1 mM orthovanadate in the lysis buffer; co-IP; as the anti-FLAG co-IP, but cells lysed in the presence of 1 mM orthovanadate, which competes for binding at the catalytic centre; immunoblot
T1 sequence: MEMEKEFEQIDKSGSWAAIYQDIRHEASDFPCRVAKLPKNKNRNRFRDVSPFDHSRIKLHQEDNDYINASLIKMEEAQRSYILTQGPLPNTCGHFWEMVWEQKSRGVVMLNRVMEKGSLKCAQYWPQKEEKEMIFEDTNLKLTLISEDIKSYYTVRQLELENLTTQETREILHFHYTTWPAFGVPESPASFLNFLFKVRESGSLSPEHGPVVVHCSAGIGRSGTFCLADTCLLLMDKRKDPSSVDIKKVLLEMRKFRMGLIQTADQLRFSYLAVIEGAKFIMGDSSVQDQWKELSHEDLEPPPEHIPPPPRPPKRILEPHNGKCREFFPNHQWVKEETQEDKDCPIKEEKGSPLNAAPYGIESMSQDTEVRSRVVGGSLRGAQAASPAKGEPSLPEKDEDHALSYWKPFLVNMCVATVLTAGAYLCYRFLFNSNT

[2] = molecular target: T1, FLAG-PTP1B D181A-Y46F substrate trapping mutant (full-length); experiment: co-IP; anti-FLAG M2 magnetic beads, lysates of PTP1B KO Ramos cells with inducible FLAG-PTP1B WT or trapping mutants; lysis buffer 50 mM Tris-HCl pH 8.5, 137.5 mM NaCl, 1 mM EDTA, 1% Triton X-100; 2-4 h at 8°C; immunoblot of endogenous partners; no orthovanadate
[3] = molecular target: T2, FLAG-PTP1B D181A-Y46F Δ406-435 (truncated trapping mutant without the ER-targeting domain) (UniProt P18031); experiment: as above
T2 sequence: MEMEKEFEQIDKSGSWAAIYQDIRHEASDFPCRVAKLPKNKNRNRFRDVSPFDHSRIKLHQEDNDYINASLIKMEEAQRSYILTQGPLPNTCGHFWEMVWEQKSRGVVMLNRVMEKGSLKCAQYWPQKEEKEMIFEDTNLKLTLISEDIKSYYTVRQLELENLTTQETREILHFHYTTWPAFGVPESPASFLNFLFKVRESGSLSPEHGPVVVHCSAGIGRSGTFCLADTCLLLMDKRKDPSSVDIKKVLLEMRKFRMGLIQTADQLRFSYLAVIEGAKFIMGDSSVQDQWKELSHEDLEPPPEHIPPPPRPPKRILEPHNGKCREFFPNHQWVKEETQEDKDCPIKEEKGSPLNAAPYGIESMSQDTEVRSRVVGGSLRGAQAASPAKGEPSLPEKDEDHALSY

[4] = molecular target: T1, FLAG-PTP1B D181A-Y46F substrate trapping mutant (full-length); experiment: co-IP; as the anti-FLAG co-IP, but cells lysed in the presence of 1 mM orthovanadate, which competes for binding at the catalytic centre; immunoblot
[5] = molecular target: T3, FLAG-PTP1B WT (protein tyrosine phosphatase 1B) (UniProt P18031); experiment: co-IP; anti-FLAG M2 magnetic beads, lysates of PTP1B KO Ramos cells with inducible FLAG-PTP1B WT or trapping mutants; lysis buffer 50 mM Tris-HCl pH 8.5, 137.5 mM NaCl, 1 mM EDTA, 1% Triton X-100; 2-4 h at 8°C; immunoblot of endogenous partners; no orthovanadate
T3 sequence: T1 sequence with F46Y, A181D

B3: PLCγ1 (enzyme, UniProt P19174 1-1290)
chain: MAGAASPCANGCGPGAPSDAEVLHLCRSLEVGTVMTLFYSKKSQRPERKTFQVKLETRQITWSRGADKIEGAIDIREIKEIRPGKTSRDFDRYQEDPAFRPDQSHCFVILYGMEFRLKTLSLQATSEDEVNMWIKGLTWLMEDTLQAPTPLQIERWLRKQFYSVDRNREDRISAKDLKNMLSQVNYRVPNMRFLRERLTDLEQRSGDITYGQFAQLYRSLMYSAQKTMDLPFLEASTLRAGERPELCRVSLPEFQQFLLDYQGELWAVDRLQVQEFMLSFLRDPLREIEEPYFFLDEFVTFLFSKENSVWNSQLDAVCPDTMNNPLSHYWISSSHNTYLTGDQFSSESSLEAYARCLRMGCRCIELDCWDGPDGMPVIYHGHTLTTKIKFSDVLHTIKEHAFVASEYPVILSIEDHCSIAQQRNMAQYFKKVLGDTLLTKPVEISADGLPSPNQLKRKILIKHKKLAEGSAYEEVPTSMMYSENDISNSIKNGILYLEDPVNHEWYPHYFVLTSSKIYYSEETSSDQGNEDEEEPKEVSSSTELHSNEKWFHGKLGAGRDGRHIAERLLTEYCIETGAPDGSFLVRESETFVGDYTLSFWRNGKVQHCRIHSRQDAGTPKFFLTDNLVFDSLYDLITHYQQVPLRCNEFEMRLSEPVPQTNAHESKEWYHASLTRAQAEHMLMRVPRDGAFLVRKRNEPNSYAISFRAEGKIKHCRVQQEGQTVMLGNSEFDSLVDLISYYEKHPLYRKMKLRYPINEEALEKIGTAEPDYGALYEGRNPGFYVEANPMPTFKCAVKALFDYKAQREDELTFIKSAIIQNVEKQEGGWWRGDYGGKKQLWFPSNYVEEMVNPVALEPEREHLDENSPLGDLLRGVLDVPACQIAIRPEGKNNRLFVFSISMASVAHWSLDVAADSQEELQDWVKKIREVAQTADARLTEGKIMERRKKIALELSELVVYCRPVPFDEEKIGTERACYRDMSSFPETKAEKYVNKAKGKKFLQYNRLQLSRIYPKGQRLDSSNYDPLPMWICGSQLVALNFQTPDKPMQMNQALFMTGRHCGYVLQPSTMRDEAFDPFDKSSLRGLEPCAISIEVLGARHLPKNGRGIVCPFVEIEVAGAEYDSTKQKTEFVVDNGLNPVWPAKPFHFQISNPEFAFLRFVVYEEDMFSDQNFLAQATFPVKGLKTGYRAVPLKNNYSEDLELASLLIKIDIFPAKENGDLSPFSGTSLRERGSDASGQLFHGRAREGSFESRYQQPFEDFRISQEHLADHFDSRERRAPRRTRVNGDNRL
binding [1]: no binding
binding [2]: binds
binding [3]: binds

B4: B cell adapter for phosphoinositide 3-kinase (BCAP) (protein, UniProt Q6ZUJ8 1-805)
chain: MAASGVPRGCDILIVYSPDAEEWCQYLQTLFLSSRQVRSQKILTHRLGPEASFSAEDLSLFLSTRCVVVLLSAELVQHFHKPALLPLLQRAFHPPHRVVRLLCGVRDSEEFLDFFPDWAHWQELTCDDEPETYVAAVKKAISEDSGCDSVTDTEPEDEKVVSYSKQQNLPTVTSPGNLMVVQPDRIRCGAETTVYVIVRCKLDDRVATEAEFSPEDSPSVRMEAKVENEYTISVKAPNLSSGNVSLKIYSGDLVVCETVISYYTDMEEIGNLLSNAANPVEFMCQAFKIVPYNTETLDKLLTESLKNNIPASGLHLFGINQLEEEDMMTNQRDEELPTLLHFAAKYGLKNLTALLLTCPGALQAYSVANKHGHYPNTIAEKHGFRDLRQFIDEYVETVDMLKSHIKEELMHGEEADAVYESMAHLSTDLLMKCSLNPGCDEDLYESMAAFVPAATEDLYVEMLQASTSNPIPGDGFSRATKDSMIRKFLEGNSMGMTNLERDQCHLGQEEDVYHTVDDDEAFSVDLASRPPVPVPRPETTAPGAHQLPDNEPYIFKVFAEKSQERPGNFYVSSESIRKGPPVRPWRDRPQSSIYDPFAGMKTPGQRQLITLQEQVKLGIVNVDEAVLHFKEWQLNQKKRSESFRFQQENLKRLRDSITRRQREKQKSGKQTDLEITVPIRHSQHLPAKVEFGVYESGPRKSVIPPRTELRRGDWKTDSTSSTASSTSNRSSTRSLLSVSSGMEGDNEDNEVPEVTRSRSPGPPQVDGTPTMSLERPPRVPPRAASQRPPTRETFHPPPPVPPRGR
binding [1]: no binding
binding [2]: binds

Next, values leading:

binding [1]: no binding
binding [2]: binds
binding [3]: binds
B1: PLCγ2 (enzyme, UniProt P16885 1-1265)
chain: MSTTVNVDSLAEYEKSQIKRALELGTVMTVFSFRKSTPERRTVQVIMETRQVAWSKTADKIEGFLDIMEIKEIRPGKNSKDFERAKAVRQKEDCCFTILYGTQFVLSTLSLAADSKEDAVNWLSGLKILHQEAMNASTPTIIESWLRKQIYSVDQTRRNSISLRELKTILPLINFKVSSAKFLKDKFVEIGAHKDELSFEQFHLFYKKLMFEQQKSILDEFKKDSSVFILGNTDRPDASAVYLHDFQRFLIHEQQEHWAQDLNKVRERMTKFIDDTMRETAEPFLFVDEFLTYLFSRENSIWDEKYDAVDMQDMNNPLSHYWISSSHNTYLTGDQLRSESSPEAYIRCLRMGCRCIELDCWDGPDGKPVIYHGWTRTTKIKFDDVVQAIKDHAFVTSSFPVILSIEEHCSVEQQRHMAKAFKEVFGDLLLTKPTEASADQLPSPSQLREKIIIKHKKLGPRGDVDVNMEDKKDEHKQQGELYMWDSIDQKWTRHYCAIADAKLSFSDDIEQTMEEEVPQDIPPTELHFGEKWFHKKVEKRTSAEKLLQEYCMETGGKDGTFLVRESETFPNDYTLSFWRSGRVQHCRIRSTMEGGTLKYYLTDNLTFSSIYALIQHYRETHLRCAEFELRLTDPVPNPNPHESKPWYYDSLSRGEAEDMLMRIPRDGAFLIRKREGSDSYAITFRARGKVKHCRINRDGRHFVLGTSAYFESLVELVSYYEKHSLYRKMRLRYPVTPELLERYNMERDINSLYDVSRMYVDPSEINPSMPQRTVKALYDYKAKRSDELSFCRGALIHNVSKEPGGWWKGDYGTRIQQYFPSNYVEDISTADFEELEKQIIEDNPLGSLCRGILDLNTYNVVKAPQGKNQKSFVFILEPKQQGDPPVEFATDRVEELFEWFQSIREITWKIDTKENNMKYWEKNQSIAIELSDLVVYCKPTSKTKDNLENPDFREIRSFVETKADSIIRQKPVDLLKYNQKGLTRVYPKGQRVDSSNYDPFRLWLCGSQMVALNFQTADKYMQMNHALFSLNGRTGYVLQPESMRTEKYDPMPPESQRKILMTLTVKVLGARHLPKLGRSIACPFVEVEICGAEYDNNKFKTTVVNDNGLSPIWAPTQEKVTFEIYDPNLAFLRFVVYEEDMFSDPNFLAHATYPIKAVKSGFRSVPLKNGYSEDIELASLLVFCEMRPVLESEEELYSSCRQLRRRQEELNNQLFLYDTHQNLRNANRDALVKEFSVNENQLQLYQEKCNKRLREKRVSNSKFYS

binding [4]: binds
binding [2]: binds
binding [5]: binds
B2: guanine nucleotide exchange factor VAV1 (protein, UniProt P15498 1-845)
chain: MELWRQCTHWLIQCRVLPPSHRVTWDGAQVCELAQALRDGVLLCQLLNNLLPHAINLREVNLRPQMSQFLCLKNIRTFLSTCCEKFGLKRSELFEAFDLFDVQDFGKVIYTLSALSWTPIAQNRGIMPFPTEEESVGDEDIYSGLSDQIDDTVEEDEDLYDCVENEEAEGDEIYEDLMRSEPVSMPPKMTEYDKRCCCLREIQQTEEKYTDTLGSIQQHFLKPLQRFLKPQDIEIIFINIEDLLRVHTHFLKEMKEALGTPGAANLYQVFIKYKERFLVYGRYCSQVESASKHLDRVAAAREDVQMKLEECSQRANNGRFTLRDLLMVPMQRVLKYHLLLQELVKHTQEAMEKENLRLALDAMRDLAQCVNEVKRDNETLRQITNFQLSIENLDQSLAHYGRPKIDGELKITSVERRSKMDRYAFLLDKALLICKRRGDSYDLKDFVNLHSFQVRDDSSGDRDNKKWSHMFLLIEDQGAQGYELFFKTRELKKKWMEQFEMAISNIYPENATANGHDFQMFSFEETTSCKACQMLLRGTFYQGYRCHRCRASAHKECLGRVPPCGRHGQDFPGTMKKDKLHRRAQDKKRNELGLPKMEVFQEYYGLPPPPGAIGPFLRLNPGDIVELTKAEAEQNWWEGRNTSTNEIGWFPCNRVKPYVHGPPQDLSVHLWYAGPMERAGAESILANRSDGTFLVRQRVKDAAEFAISIKYNVEVKHIKIMTAEGLYRITEKKAFRGLTELVEFYQQNSLKDCFKSLDTTLQFPFKEPEKRTISRPAVGSTKYFGTAKARYDFCARDRSELSLKEGDIIKILNKKGQQGWWRGEIYGRVGWFPANYVEEDYSEYC
